Counter-ions that a name gives are not always drawn. The list shows a part of the results. Repeats are few or missing, and single values can be far off.
The molecules below were run on Escherichia coli W3110 (assay: planktonic growth (OD600) relative to untreated control; higher = more growth). Settings: 10 µM; 20-24 h; 30 °C; TB.
`N=C(N)N/N=C/c1c(Cl)cccc1Cl` [Guanabenz acetate] showed a planktonic growth of 96%. With `OC(CCN1CCCCC1)(c1ccccc1)C1CCCCC1` (stereo not drawn) [Trihexyphenidyl-D,L Hydrochloride] the planktonic growth was 101%. With `COc1ccc(C(=O)NCc2ccc(OCCN(C)C)cc2)cc1OC` [Itopride] the planktonic growth was 97%. In the case of `N[C@@H](C(=O)N[C@@H]1C(=O)N2C(C(=O)O)=C(Cl)CS[C@H]12)c1ccccc1` [Cefaclor hydrate], the planktonic growth is reported as 67%. Molecule `CC(Oc1ccccc1)C(=O)N[C@@H]1C(=O)N2[C@@H]1SC(C)(C)[C@@H]2C(=O)O` (stereo partly drawn) [Phenethicillin potassium salt] has a planktonic growth of 104%. In the case of `CN(C)[C@@H]1C(O)=C(C(N)=O)C(=O)[C@@]2(O)C(O)=C3C(=O)c4c(O)ccc(Cl)c4[C@@H](O)[C@H]3C[C@@H]12` [Demeclocycline hydrochloride], the planktonic growth is reported as 22%. `Cn1c([N+](=O)[O-])cnc1COC(N)=O` [Ronidazole] showed a planktonic growth of 92%. `O=C1c2ccccc2S(=O)(=O)N1CCCCN1CCN(c2ncccn2)CC1` [Ipsapirone] gave a planktonic growth of 107%. For `CC(Oc1c(Cl)cccc1Cl)C1=NCCN1` (stereo not drawn) [Lofexidine], the planktonic growth was 110%. `CC1=C(CC(=O)O)c2cc(F)ccc2/C1=C\c1ccc([S+](C)[O-])cc1` (stereo not drawn) [Sulindac] showed a planktonic growth of 100%. `Cc1noc(NS(=O)(=O)c2ccc(N)cc2)c1C` [Sulfisoxazole] was tested, and the planktonic growth was 52%. `CCc1cccc2c3c([nH]c12)C(CC)(CC(=O)O)OCC3` (stereo not drawn) [Etodolac] was tested, and the planktonic growth was 112%. `CC[N+](CC)(CC)CCC(O)(c1ccccc1)C1CCCCC1` (stereo not drawn) [Tridihexethyl chloride] showed a planktonic growth of 105%. `C[C@]12CC[C@@H]3c4ccc(O)cc4CC[C@H]3[C@@H]1C[C@@H](O)[C@@H]2O` [Estriol] was tested, and the planktonic growth was 89%. Work on `CN(C)CCCO[C@@H]1[C@H]2OC(C)(C)O[C@H]2O[C@@H]1[C@H](O)CO` [Amiprilose hydrochloride] yielded a planktonic growth of 100%. In the case of `CO/N=C(\C(=O)N[C@@H]1C(=O)N2C(C(=O)O)=C(C[N+]3(C)CCCC3)CS[C@H]12)c1csc(N)n1` [Cefepime hydrochloride], the planktonic growth is reported as 18%. `CCOC(=O)[C@H](CCc1ccccc1)N[C@@H](C)C(=O)N1CCC[C@H]1C(=O)O` [Enalapril maleate] showed a planktonic growth of 100%. `COc1ccc2[nH]c([S+]([O-])Cc3ncc(C)c(OC)c3C)nc2c1` (stereo not drawn) [Omeprazole] gave a planktonic growth of 88%. In the case of `CC(=O)Nc1ccc(O)cc1` [Acetaminophen], the planktonic growth is reported as 96%. Work on `OCCOCCN1CCN(C(c2ccccc2)c2ccc(Cl)cc2)CC1` (stereo not drawn) [Hydroxyzine dihydrochloride] yielded a planktonic growth of 94%. Molecule `C=CC1=C(C(=O)O)N2C(=O)[C@@H](NC(=O)/C(=N\OCC(=O)O)c3csc(N)n3)[C@H]2SC1` [Cefixime] has a planktonic growth of 2%. `Cc1cc(-n2c(=O)[nH]c(=O)n(C)c2=O)ccc1Oc1ccc(SC(F)(F)F)cc1` [Toltrazuril] showed a planktonic growth of 96%. For `Cc1ccccc1N1C(=O)c2cc(S(N)(=O)=O)c(Cl)cc2NC1C` (stereo not drawn) [Metolazone], the planktonic growth was 25%. `CN(C)CCOC(c1ccc(Cl)cc1)c1ccccn1` (stereo not drawn) [Carbinoxamine maleate salt] showed a planktonic growth of 113%. `O=C1CCc2ccc(OCCCCN3CCN(c4cccc(Cl)c4Cl)CC3)cc2N1` [Aripiprazole] was tested, and the planktonic growth was 120%. `NC(=O)NC1NC(=O)NC1=O` (stereo not drawn) [Allantoin] gave a planktonic growth of 106%. In the case of `CC(C)NCC(O)c1ccc(O)c(O)c1` (single isomer, unassigned; (-)) [(-)-Isoproterenol hydrochloride], the planktonic growth is reported as 93%. Work on `O=C1C(O)=C([C@H]2CC[C@H](c3ccc(Cl)cc3)CC2)C(=O)c2ccccc21` [Atovaquone] yielded a planktonic growth of 93%. `Cc1ccccc1C(OCCN(C)C)c1ccccc1` (stereo not drawn) [Orphenadrine hydrochloride] showed a planktonic growth of 102%. `CN1CCN(c2c(F)cc3c(=O)c(C(=O)O)cn4c3c2SCC4)CC1` [Rufloxacin] was tested, and the planktonic growth was 8%. Molecule `COC(=O)C1=C(C)NC(C)=C(C(=O)OCCN(C)Cc2ccccc2)C1c1cccc([N+](=O)[O-])c1` (stereo not drawn) [Nicardipine hydrochloride] has a planktonic growth of 93%. In the case of `COC(=O)C1=C(C)NC(C)=C(C(=O)OCC(C)C)C1c1ccccc1[N+](=O)[O-]` (stereo not drawn) [Nisoldipine], the planktonic growth is reported as 98%. `CCC1NC(=O)c2cc(S(N)(=O)=O)c(Cl)cc2N1` (stereo not drawn) [Quinethazone] gave a planktonic growth of 112%. In the case of `O=C1[C@H](CC[C@H](O)c2ccc(F)cc2)[C@@H](c2ccc(O)cc2)N1c1ccc(F)cc1` [Ezetimibe], the planktonic growth is reported as 93%. `Cc1cnc(C(=O)NCCc2ccc(S(=O)(=O)NC(=O)NC3CCCCC3)cc2)cn1` [Glipizide] was tested, and the planktonic growth was 91%. Molecule `CN1CCC(=C2c3ccccc3CCc3sccc32)CC1` [Pizotifen malate] has a planktonic growth of 99%. Work on `CN1CCOC(c2ccccc2)c2ccccc2C1` (stereo not drawn) [Nefopam hydrochloride] yielded a planktonic growth of 95%. `CN(C)[C@@H]1C(O)=C(C(=O)NCNCCCC[C@H](N)C(=O)O)C(=O)[C@@]2(O)C(O)=C3C(=O)c4c(O)cccc4[C@@](C)(O)[C@H]3C[C@@H]12` [Lymecycline] showed a planktonic growth of 80%. In the case of `CCCCNc1ccc(C(=O)OCCN(C)C)cc1` [Tetracaine hydrochloride], the planktonic growth is reported as 91%. Work on `CCCCCOC(=O)Nc1nc(=O)n([C@@H]2O[C@H](C)[C@@H](O)[C@H]2O)cc1F` [Capecitabine] yielded a planktonic growth of 93%. `CCN(CC)CCOc1ccc(C(=C(Cl)c2ccccc2)c2ccccc2)cc1` [Clomiphene citrate (Z,E)] was tested, and the planktonic growth was 109%. `Cc1cnc(C(=O)O)c[n+]1[O-]` [Acipimox] showed a planktonic growth of 95%. `O=C(O)[C@H]1/C(=C/CO)O[C@@H]2CC(=O)N21` [Clavulanate potassium salt] was tested, and the planktonic growth was 83%. With `O=C(OCCOCCO)c1ccccc1Nc1cccc(C(F)(F)F)c1` [Etofenamate] the planktonic growth was 104%. `Nc1nc2[nH]cc(CCc3ccc(C(=O)N[C@@H](CCC(=O)O)C(=O)O)cc3)c2c(=O)[nH]1` [Pemetrexed disodium] showed a planktonic growth of 104%. Molecule `COc1ccc(C(=O)c2ccccc2O)c(O)c1` [Dioxybenzone] has a planktonic growth of 89%. With `CC(C)(C)NC[C@H](O)COc1ccccc1C1CCCC1` [Penbutolol sulfate] the planktonic growth was 104%. For `COc1ccc(CN2CCN(C(c3ccc(F)cc3)c3ccc(F)cc3)CC2)c(OC)c1OC` [Lomerizine hydrochloride], the planktonic growth was 103%. `CCN1CCC[C@H]1CNC(=O)c1c(O)c(Cl)cc(Cl)c1OC` [Raclopride] gave a planktonic growth of 91%. `CC[C@@H]([C@H](C)O)n1ncn(-c2ccc(N3CCN(c4ccc(OC[C@@H]5CO[C@@](Cn6cncn6)(c6ccc(F)cc6F)C5)cc4)CC3)cc2)c1=O` [Posaconazole] gave a planktonic growth of 114%. With `CCCCC[C@H](O)/C=C/[C@H]1[C@H](O)CC(=O)[C@@H]1CCCCCCC(=O)O` [Alprostadil] the planktonic growth was 88%. Molecule `CC(C(=O)O)c1ccc(C(=O)c2cccs2)cc1` (stereo not drawn) [Suprofen] has a planktonic growth of 94%. With `COc1cc2ncnc(Nc3ccc(F)c(Cl)c3)c2cc1OCCCN1CCOCC1` [Gefitinib] the planktonic growth was 110%. For `CN1CCC[C@@H]1CCO[C@](C)(c1ccccc1)c1ccc(Cl)cc1` [Clemastine fumarate], the planktonic growth was 101%. With `CCOc1ccc(NC(C)=O)cc1` [Phenacetin] the planktonic growth was 89%. Molecule `NS(=O)(=O)c1cc2c(cc1Cl)NC(CC1CCCC1)NS2(=O)=O` (stereo not drawn) [Cyclopenthiazide] has a planktonic growth of 89%. `CC(C)(C)NCC(O)c1cc(O)cc(O)c1` (stereo not drawn) [Terbutaline hemisulfate] gave a planktonic growth of 110%. In the case of `CCOC(=O)[N-]c1c[n+](N2CCOCC2)no1` [Molsidomine], the planktonic growth is reported as 89%. `CC[N+](CC)(CC)CCOc1cccc(OCC[N+](CC)(CC)CC)c1OCC[N+](CC)(CC)CC` [Gallamine triethiodide] gave a planktonic growth of 102%. Molecule `C#C[C@]1(O)CC[C@H]2[C@@H]3CCC4=C(CCC(=O)C4)[C@H]3CC[C@@]21C` [Norethynodrel] has a planktonic growth of 95%. Work on `CCc1oc2ccccc2c1C(=O)c1cc(Br)c(O)c(Br)c1` [Benzbromarone] yielded a planktonic growth of 112%. `CC/C(=C(\c1ccccc1)c1ccc(OCCN(C)C)cc1)c1ccccc1` [Tamoxifen citrate] showed a planktonic growth of 91%. Molecule `CN[C@@H]1[C@H](O[C@H]2[C@H](O[C@H]3[C@H](O)[C@@H](O)[C@H](NC(=N)N)[C@@H](O)[C@@H]3NC(=N)N)O[C@@H](C)[C@]2(O)CO)O[C@@H](CO)[C@H](O)[C@H]1O` [Dihydrostreptomycin sulfate] has a planktonic growth of 52%. Molecule `NCc1ccc(S(N)(=O)=O)cc1` [Mafenide hydrochloride] has a planktonic growth of 105%. For `NCC[C@H](O)C(=O)N[C@@H]1C[C@H](N)[C@@H](O[C@H]2O[C@H](CN)[C@@H](O)[C@H](O)[C@H]2O)[C@H](O)[C@H]1O[C@H]1O[C@H](CO)[C@@H](O)[C@H](N)[C@H]1O` [Amikacin hydrate], the planktonic growth was 23%. `O=C1c2cccc3c2[C@H](CCC3)CN1[C@@H]1CN2CCC1CC2` [Palonosetron hydrochloride] gave a planktonic growth of 96%. `CC(C)CN(C[C@@H](O)[C@H](Cc1ccccc1)NC(=O)O[C@H]1CO[C@H]2OCC[C@H]21)S(=O)(=O)c1ccc(N)cc1` [Darunavir] gave a planktonic growth of 97%. In the case of `Clc1ccc(Nc2nnc(Cc3ccncc3)c3ccccc23)cc1` [Vatalanib], the planktonic growth is reported as 106%. `CN1CCC(OC(c2ccccc2)c2ccccc2)CC1` [Diphenylpyraline hydrochloride] gave a planktonic growth of 95%. Work on `O=C(Oc1cccc2cccnc12)c1ccccc1` [Benzoxiquine] yielded a planktonic growth of 107%. `C[C@H]1COc2c(N3CCN(C)CC3)c(F)cc3c(=O)c(C(=O)O)cn1c23` [Levofloxacin] was tested, and the planktonic growth was 19%. `CN(C)CCCN1c2ccccc2CCc2ccccc21` [Imipramine hydrochloride] showed a planktonic growth of 106%. Work on `NC(CO)C(=O)NNCc1ccc(O)c(O)c1O` (stereo not drawn) [Benserazide hydrochloride] yielded a planktonic growth of 91%.

— the supplement of paper PMC7580552
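Further: stationary (unshaken) cultures in 96-well plates, started at OD600 0.05 from mid-exponential cells, with compounds supplied from DMSO stocks.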
